Drawing on article PMC6212790, this text covers binding signal for 94 sequences.

Some of the results follow. At the low end of the ranking the order means little.

This experiment has as its target T1, GST-Rok (full length) (UniProt O34857).
T1 sequence: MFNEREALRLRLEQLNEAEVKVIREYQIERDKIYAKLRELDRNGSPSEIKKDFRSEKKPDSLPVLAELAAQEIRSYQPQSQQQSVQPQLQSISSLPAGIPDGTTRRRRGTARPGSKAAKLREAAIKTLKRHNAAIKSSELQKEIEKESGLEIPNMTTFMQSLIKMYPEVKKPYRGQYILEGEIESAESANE
Kind of experiment: protein binding microarray.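 Also: rank score from −0.5 (least bound) to 0.5 (best bound).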 The settings on record: Rok is a gene silencer of Bacillus subtilis; high values mean tight binding; most listed sequences are background and not binding sites; double strand, one strand shown.
As to CAAGCAGA, the binding signal was 0.135 E-score.
To AGTAGGGA belongs -0.0578 E-score; to CCGTCCAG, -0.187 E-score.
In turn, GGAACAGA had a binding signal of -0.159 E-score.
Take CCACTATC: the binding signal was 0.127 E-score.
To AGATCTGC belongs 0.168 E-score.
In the case of CCTTTGGC, the binding signal was -0.39 E-score.
To CTGTCCTA belongs -0.000277 E-score.
In the case of GGGACGAA, the binding signal is -0.156 E-score.
For AGATTCAT the value was 0.202 E-score; for CATATTCG, 0.124 E-score.
CCTTTGGA gave a binding signal of -0.265 E-score.
For ATTTTCGA the value was 0.0431 E-score; for ATCAGATC, 0.0898 E-score.
For ATAGGCAG the value was 0.108 E-score; for CTTTGGAC, -0.199 E-score.
CGGACTCC yielded a binding signal of -0.228 E-score.
For CAGATAAG, the binding signal was found to be 0.0501 E-score.
For ATTTAATC the value was 0.147 E-score; for ACCTGTTG, -0.0678 E-score; for CGGATACC, -0.036 E-score.
For ATTACCGG the value was 0.209 E-score.
For AGTCCGCC the value was -0.31 E-score.
In the case of CATGTAAG, the binding signal is 0.121 E-score.
For CGTATGAA the value was 0.143 E-score; for ACTGTACC, 0.066 E-score; for ATCGCTTG, 0.0249 E-score.
The sequence GCGTACGC gave a binding signal of 0.0744 E-score.
To ATACTGAG belongs 0.216 E-score.
For GGCTGACC the value was -0.171 E-score.
With CCTGCTAA, the binding signal is -0.0229 E-score.
As to CTGCTGCC, the binding signal was -0.273 E-score.
For GACCGAAA, the binding signal was -0.0532 E-score.
With ATCGGGGG, the binding signal was -0.417 E-score.
To CGGCTTGA belongs -0.199 E-score.
For CAGGATCA the value was -0.0628 E-score.
ATTCGCGA came in with a binding signal of 0.108 E-score.
To AAATGCAA belongs 0.155 E-score; to CTAATACA, 0.245 E-score; to CCGGTGTC, -0.169 E-score.
For AAGCTAGG the value was -0.054 E-score.
The sequence GAGATCTA registered a binding signal of 0.226 E-score.
ACTACTAG gave a binding signal of 0.346 E-score.
For CCGACCCG the value was -0.275 E-score; for ACACGCTC, -0.0584 E-score.
To AGCAACCA belongs 0.0365 E-score; to CACGTTCG, -0.0784 E-score; to CCGAGCAA, -0.0793 E-score.
Take AATTTAGG: the binding signal was 0.21 E-score.
To AACGCCAG belongs 0.0379 E-score; to ACCTCTAG, -0.13 E-score; to AGCGTGCC, -0.24 E-score.
Take CGGGTCGA: the binding signal is -0.282 E-score.
For CTAATCAG the value was -0.174 E-score; for GCTGACAA, 0.0483 E-score; for ACGGGTGC, -0.295 E-score.
Sequence GACTGAAA displayed a binding signal of -0.0354 E-score.
For GAAGCGAA the value was 0.021 E-score; for CCGATGTC, -0.147 E-score.
To TAGCGATA belongs 0.14 E-score; to GAGACACC, -0.292 E-score; to ACGCCGGG, -0.278 E-score.
To GATGCCTA belongs -0.134 E-score; to TTTAGAAA, 0.183 E-score.
Take CCATGACA: the binding signal was 0.0472 E-score.
For ACCCTTGG the value was -0.21 E-score; for CGTGAAGC, -0.239 E-score; for ACTCGCAC, -0.112 E-score.
For GATGCCGC the value was -0.145 E-score; for ATAATGTA, 0.4 E-score.
In the case of AGCAACGC, the binding signal was -0.264 E-score.
To CTCCACAA belongs -0.0174 E-score; to AGTTACGA, 0.167 E-score.
Regarding GCTAGCTA, the binding signal was 0.156 E-score.
To GACACTGA belongs -0.199 E-score; to GGAATTTA, 0.184 E-score.
For AGTCATGA the value was 0.139 E-score; for ACTCAACG, -0.158 E-score; for GGATGATA, 0.106 E-score.
For ATGAACGG the value was -0.062 E-score; for GGTCGATA, -0.0286 E-score.
In the case of CGTATCAG, the binding signal is -0.0951 E-score.
Sequence CAGGACAG registered a binding signal of -0.0785 E-score.
GGTTCCCA yielded a binding signal of -0.237 E-score.
ACGCTTCC came in with a binding signal of -0.206 E-score.
For AAAGATCT the value was 0.155 E-score; for ACACTATC, 0.211 E-score; for AGTGCTCG, -0.205 E-score.
Consider GAACCCTC, for which the binding signal was -0.267 E-score.
To ATAAAGAC belongs 0.113 E-score.
To GACTGGGA belongs -0.0412 E-score.
As to CAGGGGTA, the binding signal is 0.0671 E-score.
The sequence GCCAAGTA registered a binding signal of 0.107 E-score.
Take TGAAGTCA: the binding signal is -0.0361 E-score.
